Measurements from PubChem BioAssay AID1645887 (National Center for Advancing Translational Sciences (NCATS), 2021).
Several values for one entry are separate records, joined by “and”; a condition that tells them apart may be missing. Equal entries are not always repeated. The campaign covered roughly 16,000 compounds. About 40 (0.2%) were called active. Not shown: some 1% with an inconclusive outcome. The call rests on the fitted dose curve; in most records, active means well fitted activation curve with a large enough effect; inconclusive means small, poorly fitted or top-dose-only effect, or another doubt; inactive means no such curve, though single readings can be large or run the other way. This is one part of the list.

Target: Rap guanine nucleotide exchange factor 4 (Homo sapiens) (UniProt Q8WZA2)
Assay: Validation qHTS for agonist of cAMP-regulated guanine nucleotide exchange factor 4 (EPAC2);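 further: exchange makes BODIPY-GDP fluorescence drop when released from Rap1B; series mostly up to about 150 µM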
Settings: EPAC2 Rap1B BODIPY-GDP exchange, fluorescence; activation: hits give high values
Summary of the method: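 Fluorescent exchange assay: 100 nM EPAC2 with 250 nM RAP1B-BODIPY-GDP and 50 uM GDP; compound added, 5 min at room temperature, then read (ex 480/em 540 nm) every 5 min for 30 min. Normalized to 6.5 mM cAMP agonist control.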
On the % scale 0 is the no-effect control and ±100 the full control effect.

UniProt Q8WZA2, sequence (Q8WZA2 whole entry, looked up): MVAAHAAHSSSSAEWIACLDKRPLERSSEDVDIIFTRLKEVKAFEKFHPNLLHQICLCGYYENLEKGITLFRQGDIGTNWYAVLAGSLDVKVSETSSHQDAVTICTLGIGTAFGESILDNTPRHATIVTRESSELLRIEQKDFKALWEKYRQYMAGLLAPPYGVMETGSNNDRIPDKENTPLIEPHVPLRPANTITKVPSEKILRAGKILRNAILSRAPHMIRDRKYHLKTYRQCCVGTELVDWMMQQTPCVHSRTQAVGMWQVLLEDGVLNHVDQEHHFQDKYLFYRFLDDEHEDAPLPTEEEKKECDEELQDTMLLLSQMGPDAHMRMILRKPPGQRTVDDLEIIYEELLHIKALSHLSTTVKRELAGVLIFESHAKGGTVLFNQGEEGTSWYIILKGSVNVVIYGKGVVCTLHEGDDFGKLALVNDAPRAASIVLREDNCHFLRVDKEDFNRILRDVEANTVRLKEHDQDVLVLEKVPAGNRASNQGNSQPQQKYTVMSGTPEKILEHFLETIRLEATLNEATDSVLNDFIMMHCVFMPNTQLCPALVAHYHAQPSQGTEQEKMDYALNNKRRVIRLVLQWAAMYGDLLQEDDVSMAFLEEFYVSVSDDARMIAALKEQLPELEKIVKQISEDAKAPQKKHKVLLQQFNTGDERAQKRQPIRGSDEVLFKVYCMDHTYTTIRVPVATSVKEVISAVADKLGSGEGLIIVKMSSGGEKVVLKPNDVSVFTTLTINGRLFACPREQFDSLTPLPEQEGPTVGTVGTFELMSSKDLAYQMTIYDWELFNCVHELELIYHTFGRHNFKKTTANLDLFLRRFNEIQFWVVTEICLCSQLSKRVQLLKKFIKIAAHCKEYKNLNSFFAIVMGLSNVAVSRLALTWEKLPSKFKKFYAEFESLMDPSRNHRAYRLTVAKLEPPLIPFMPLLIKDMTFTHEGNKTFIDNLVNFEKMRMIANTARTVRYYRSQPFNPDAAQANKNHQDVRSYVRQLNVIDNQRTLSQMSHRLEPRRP

activation, inactive:
COc1ccc(C2c3[nH]c4ccccc4c3CC3C(=O)N(CCc4ccc(OC)c(OC)c4)CC(=O)N32)cc1 (stereo not drawn) -4.57%
O=C(O)CCC(=O)N1CCCC1C(=O)O (stereo not drawn) -37.3%
Clc1ccccc1-c1cc(NCc2ccccc2)ncn1 -0.147%
CC(C)(Sc1cc(C(C)(C)C)c(O)c(C(C)(C)C)c1)Sc1cc(C(C)(C)C)c(O)c(C(C)(C)C)c1 -8.06% and 14.6% and -0.134%
COc1cccc(Cn2c(=O)c(C)nc3cnc(N4CCN(C)CC4)nc32)c1 3.34%
CC(C)Cc1nc2cc(NS(=O)(=O)N(C)C)cc(C(=O)N3CCOc4ccccc4C3)c2n1C -16.9%
CC(C)C[C@@H](COc1ccccc1)N1CCN(Cc2ccccc2)CCC1=O -23.4%
COc1ccc(-n2c(=O)c(C)nc3cnc(Nc4cccc(OC)c4)nc32)cc1 -19.1%
CCNc1ncc2nc(-c3cc(F)cc(F)c3)c(=O)n(Cc3ccc(F)cc3)c2n1 1.04%
CN(CC1COCCO1)C(=O)c1cnn(-c2ncc3c(n2)-c2ccccc2CC3)c1C1CC1 (stereo not drawn) 4.6%
COc1cc2ncc(-c3ccccc3)nc2cc1OC -3.11% and -11%
Cc1cn2cc(CNC(=O)CN3Cc4ccccc4OC(c4ccccc4F)C3)nc2s1 (stereo not drawn) 7.78%
Cc1ccccc1-c1nc(NCc2cccnc2)c2ccccc2n1 -16.7%
O=C(c1cc(-c2ccccc2)on1)N1CCOc2ccc(CN3CCOCC3)cc2C1 -1.51%
Cc1cccc([C@@H]2CN(C)CCc3c2cc(O)c(O)c3Cl)c1 -11.8%
N#CCCn1c(=O)c(-c2cccs2)nc2cnc(Oc3cccc(Cl)c3)nc21 -6.59%
CC(C)NC(=O)c1cn([C@H]2CC[C@@H](NC(=O)/C=C/c3cccs3)CC2)nn1 -1.49%
c1nc(NC2CCNCC2)c2cc(-c3ccc4c(c3)OCO4)ccc2n1 -7.95%
O=C(Nc1ccc(Cl)c(C(F)(F)F)c1)[C@@H]1CC=C[C@@H]2CCN(Cc3ccc(Cl)c(Cl)c3)C(=O)[C@@H]21 -35.2%
Cc1ccccc1-c1cncnc1NCCN1CCOCC1 -12.1%
COc1ccc(/C=N/NC(=O)c2ccncc2)c(C(=O)O)c1OC -8.84%
COc1ccc(/C=C/c2ccccn2)cc1 -26.6%
OC[C@@H](O)C(O)[C@H](O)CO -5.83%
